PubChem BioAssay AID624170 (National Center for Advancing Translational Sciences (NCATS), 2012)
Among all 410,000 compounds or so, about 850 (0.21%) were called active. Inconclusive results, whose numbers are uncertain, are shown with a selection of clear calls. The call rests on the fitted dose curve; in most records, active means well fitted inhibition curve with a large enough effect; inconclusive means small, poorly fitted or top-dose-only effect, or another doubt; inactive means no such curve, though single readings can be large or run the other way. Potencies of inconclusive entries are doubtful fits and often do not repeat.

These compounds were tested against Glutaminase kidney isoform, mitochondrial (Homo sapiens) (UniProt O94925) (assay: qHTS for Inhibitors of Glutaminase (GLS)). Conditions: GLS enzymatic activity, qHTS titration; series mostly up to 45.5 µM.
How it was run: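 Human kidney-isoform GLS in 45 mM KH2PO4 pH 8.2, 0.02% Tween-20, with compound, started with 1mM L-Glutamine (added stock). Glutamate oxidase/HRP/Amplex red coupled fluorescence read at start and after 30 min at RT.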
Potency means the concentration at half of the fitted maximal effect; tags describe the fitted curve by direction and shape.

UniProt O94925, sequence (O94925 whole entry, looked up, canonical isoform): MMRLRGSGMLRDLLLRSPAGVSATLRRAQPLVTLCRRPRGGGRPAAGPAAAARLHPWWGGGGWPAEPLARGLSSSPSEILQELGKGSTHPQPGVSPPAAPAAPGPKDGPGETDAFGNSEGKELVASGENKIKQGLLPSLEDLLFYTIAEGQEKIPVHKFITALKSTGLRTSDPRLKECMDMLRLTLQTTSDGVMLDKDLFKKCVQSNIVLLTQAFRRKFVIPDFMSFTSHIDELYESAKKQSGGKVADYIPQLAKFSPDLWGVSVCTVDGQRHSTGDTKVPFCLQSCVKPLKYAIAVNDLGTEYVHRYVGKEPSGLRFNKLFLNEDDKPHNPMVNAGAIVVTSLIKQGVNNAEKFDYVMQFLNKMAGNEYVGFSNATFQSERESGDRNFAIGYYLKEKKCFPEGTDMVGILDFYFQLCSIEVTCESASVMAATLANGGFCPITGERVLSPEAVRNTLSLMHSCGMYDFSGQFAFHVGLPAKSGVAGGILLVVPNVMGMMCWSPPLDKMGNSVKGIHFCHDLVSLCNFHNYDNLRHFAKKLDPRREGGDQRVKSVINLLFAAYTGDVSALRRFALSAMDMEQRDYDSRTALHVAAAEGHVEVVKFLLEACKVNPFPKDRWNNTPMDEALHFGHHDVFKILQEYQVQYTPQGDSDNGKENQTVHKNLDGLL

Potency, inactive:
CCOC(=O)c1c(NC(=O)/C(C#N)=C/c2ccc(OC)cc2)sc2c1CCC2
O=C(CCC(=O)c1ccccc1)NCCc1c[nH]c2ccccc12
O=C1CCCC(O)=C1N=Nc1c(Cl)cc(C(F)(F)F)cc1Cl
CCCCC(=O)Nc1cc2nn(-c3ccc(OC)cc3)nc2cc1C
CCCCn1nnnc1C(c1ccccc1)N1CCN(c2ccc(C(F)(F)F)cn2)CC1 (stereo not drawn)
Cc1nc(NC(=O)c2csc3ccccc23)sc1C
O=C(O)CCCC(=O)Nc1ccc(N2CCCC2)cc1
COc1cccc(NC(=O)CSc2ccc3nnc(-c4ccccn4)n3n2)c1
CSc1nsc(SCC(=O)NCc2ccc(C)cc2)n1
CC(Cc1cccs1)NC(=O)Nc1cccc(Cl)c1 (stereo not drawn)
O=C(O)c1ccc(-c2ccc(/C=C3\NC(=O)N(Cc4ccc(Cl)cc4)C3=O)o2)cc1Cl
COc1ccc(S(=O)(=O)Nc2ccccc2OC)cc1N=Nc1c(O)[nH]c(=S)[nH]c1=O
O=C(Nc1nccs1)c1ccccn1
COc1ccccc1NC(=O)c1sc2nc(-c3ccco3)ccc2c1N
O=C(c1cc(Br)ccc1O)N1CCN(S(=O)(=O)Cc2ccccc2)CC1
CCNc1ccc(S(=O)(=O)N(C)C)cc1[N+](=O)[O-]

Potency, active:
Cc1ccc(CN2CC(C(=O)N3CCN(c4ccccc4O)CC3)CC2=O)cc1 (stereo not drawn) 7.08 µM
COc1ccc(CCN2C(=S)NC3CC2(C)Oc2ccc([N+](=O)[O-])cc23)cc1OC (stereo not drawn) 10 µM
CO/N=C(/C(=O)NC1C(=O)N2C(C(=O)O)=C(CSc3nc(=O)c(O)nn3C)CSC12)c1csc(N)n1 (stereo not drawn) 28.2 µM
CN(N)c1nc(N2CCCC2)nc(N2CCCC2)n1 14.1 µM
CC1(CC(=O)N/N=C/c2cc(Br)c(O)cc2O)OCCO1 10 µM
O=C(Cc1cccs1)NC1C(=O)N2C(C(=O)[O-])=C(C[n+]3ccccc3)CSC12 (stereo not drawn) 11.2 µM

Potency, inconclusive:
COc1ccccc1C(NC(C)=O)c1c(O)ccc2ccc(O)cc12 (stereo not drawn) 10 µM [inhibitor, partial curve]
C/C(=N\NC(=O)c1nnn(-c2nonc2N)c1CN1CCCCC1)c1ccccc1O 35.5 µM [inhibitor, single point]
S=c1[nH]nc(Cc2cccc3ccccc23)n1-c1ccccc1 7.08 µM [inhibitor, partial curve, poor fit]
Cc1nc(-c2nc(C(=O)NNS(C)(=O)=O)cs2)cs1 11.2 µM [inhibitor, single point]
COc1ccc2c(c1OC)C(=O)OC2Nc1nc2ccccc2s1 (stereo not drawn) 10 µM [inhibitor, single point]
O=C1C=C(c2ccc(Cl)cc2)C(=O)N1Nc1ccccc1 35.5 µM [inhibitor, single point]
Cc1ccc([N+](=O)[O-])cc1S(=O)(=O)n1ccnc1C 20 µM [inhibitor, single point]
Cc1ccc(Oc2ccc(/C=N/O)cn2)cc1 35.5 µM [inhibitor, single point]
O=C(NNC(=O)c1cccnc1)c1ccncc1 35.5 µM [inhibitor, partial curve, poor fit]
Cc1c(Br)c(O)c(Br)c(O)c1/C=N/n1c(-c2ccccc2)n[nH]c1=S 35.5 µM [inhibitor, single point]
Cc1cccc(S(=O)(=O)NNC(=O)c2sc(C)nc2C)c1 35.5 µM [inhibitor, single point]
Cc1c(OCC(=O)NC(Cc2ccc(Cl)cc2)C(=O)O)ccc2c3c(c(=O)oc12)CCCC3 (stereo not drawn) 35.5 µM [inhibitor, single point]
CC(CP(=O)(O)O)NC(=O)Cc1ccccc1 (stereo not drawn) 7.08 µM [inhibitor, partial curve]
O=[N+]([O-])c1cc(Br)c(O)c(/C=N/Nc2nnnn2-c2cccc3ccccc23)c1 35.5 µM [inhibitor, single point]
COCc1cc(C)nc2sc3c(c12)NC(c1ccccc1C(=O)O)N(c1cccc(C(F)(F)F)c1)C3=O (stereo not drawn) 20 µM [inhibitor, partial curve, poor fit]
S=c1[nH]nc(-c2cccnc2)n1/N=C/C=C/c1ccccc1 11.2 µM [inhibitor, partial curve]
CCOc1ccccc1OCC(=O)NN=C1CCCC(=O)C1 5.01 µM [inhibitor, partial curve]
COc1ccc(OC)c(Nc2nc(=O)c3cccnc3s2)c1 35.5 µM [inhibitor, single point]
Cc1nn2c(C)nc3sc4c(c3c2nc1=O)CC(C)(C)OC4 35.5 µM [inhibitor, single point]
OC(CCN1CCCCC1)c1ccc(-c2ccccc2)cc1 (stereo not drawn) 14.1 µM [inhibitor, single point]
O=C(CSc1nc2ccc(Cl)cc2[nH]1)c1c[nH]c2ccccc12 5.62 µM [inhibitor, single point]
Cc1cccc(NC(=O)CCc2nnc3ccc(NCc4ccco4)nn23)n1 25.1 µM [inhibitor, single point]
Cc1cc(SCC(=O)N/N=C/c2ccc(O)c(O)c2)nc2ccccc12 25.1 µM [inhibitor, single point]
O=C1c2nc3cc(-c4ccco4)[nH]n3c(=O)c2CN1Cc1ccccc1 35.5 µM [inhibitor, single point]
CCOC(=O)/C=C/C(=O)Nc1cccc([N+](=O)[O-])c1 35.5 µM [inhibitor, single point]
O=C(N/N=C/c1ccc(N2CCOCC2)cc1)c1ccccc1NS(=O)(=O)c1cccs1 17.8 µM [inhibitor, single point]
